From PubChem BioAssay AID2451 (National Center for Advancing Translational Sciences (NCATS), 2010)
Out of some 290,000 compounds screened, about 2,100 (0.72%) were called active. Inconclusive means that the source gave no clear call. Such entries were picked first, then a sample of the others. The call rests on the fitted dose curve; in most records, active means well fitted inhibition curve with a large enough effect; inconclusive means small, poorly fitted or top-dose-only effect, or effect the other way; inactive means flat fitted curve, though single readings scatter. Where the call is inconclusive, the potency comes from a doubtful curve fit.

Target: Fructose-bisphosphate aldolase (Giardia intestinalis (strain ATCC 50803 / WB clone C6)) (UniProt A8B2U2)
Test: qHTS Assay for Inhibitors of Fructose-1,6-bisphosphate Aldolase from Giardia Lamblia; further: nearly all actives have a fitted effect of over 55% in size
Settings: purified Giardia FBPA; activity, negative = inhibition: at 59.6 µM (top of the series) unless noted
How it was run: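 40 nM FBPA preincubated 10 min at RT with compound (up to 57.5 uM final), then substrate plus GAPDH/TPI/NAD/arsenate coupling and diaphorase/resazurin added. Fluorescence read after 20 min at RT, 525/598 nm.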
On the % scale 0 is the no-effect control and ±100 the full control effect; potency means the concentration at half of the fitted maximal effect; tags describe the fitted curve by direction and shape.

Chain of UniProt A8B2U2 (A8B2U2 whole entry, looked up): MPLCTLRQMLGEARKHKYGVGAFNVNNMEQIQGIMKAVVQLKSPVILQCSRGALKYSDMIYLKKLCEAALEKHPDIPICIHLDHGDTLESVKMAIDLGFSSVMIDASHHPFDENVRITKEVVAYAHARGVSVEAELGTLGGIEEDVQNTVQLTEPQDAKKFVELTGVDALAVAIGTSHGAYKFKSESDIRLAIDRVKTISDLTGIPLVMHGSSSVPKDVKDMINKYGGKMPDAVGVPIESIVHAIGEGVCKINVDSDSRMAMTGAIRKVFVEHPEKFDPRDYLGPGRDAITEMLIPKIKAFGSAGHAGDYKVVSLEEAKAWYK

Structure (SMILES)	activity, negative = inhibition	Potency
CC1CCN(Cc2c(C(=O)N/N=C/c3ccc(C(C)C)cc3)nnn2-c2nonc2N)CC1	inactive: -3.18%	–
COc1ccccc1CNCC(O)Cn1c2ccccc2c2ccccc21 (configuration not stated)	inactive: 11.5%	–
C/C(=N\NC(N)=S)c1cccnc1	–	active: 15.8 µM
CC(C)C[C@H](NC(=O)c1[nH]cnc1C(=O)N[C@@H](Cc1ccccc1)C(=O)OCc1ccccc1)C(=O)OC(C)(C)C	inactive: -8.53%	–
O=[N+]([O-])c1cc([N+](=O)[O-])c2cccnc2c1O	–	active: 15.8 µM
COc1cccc(CN2CCc3[nH]c(=S)[nH]c(=O)c3C2)c1	–	inconclusive: 4.47 µM [inhibitor, partial curve]
CCOC(=O)CNc1ncc(C(F)(F)F)cc1Cl	inactive: -0.74%	–
O=C(NCc1ccc2c(c1)OCO2)c1ccc2c(c1)OCO2	inactive: -8.24%	–
CC(=O)NC(c1ccco1)c1ccc2cccnc2c1O (configuration not stated)	–	inconclusive: 4.46 µM [inhibitor, full curve]
CC(C)(C)c1ccc(-c2nnc(NC(=O)c3ccccc3)s2)cc1	–	inconclusive: 5 µM [inhibitor, single point]
CN(C)c1ccc(N/C=C/C(=O)C(C)(C)C)cc1	–	active: 14.1 µM
CCc1cc(=O)n2[nH]c(C)c(-c3ccc(OC)cc3)c2n1	–	inconclusive: 28.2 µM [inhibitor, partial curve]
Cc1ccccc1-n1nc(SCC(=O)O)sc1=S	–	inconclusive: 14.1 µM [activator, partial curve]
Cc1c(NC(=S)N/N=C/c2ccc([N+](=O)[O-])cc2O)c(=O)n(-c2ccccc2)n1C	–	inconclusive: 12.6 µM [activator, partial curve]
Cc1c(-n2c(=O)n(Cc3ccccc3)c(=O)c3[nH]cnc32)cccc1S(C)=O (configuration not stated)	–	inconclusive: 14.1 µM [inhibitor, partial curve]
COc1cccc(/C=C2/C(=O)NN(c3ccc(Br)cc3)C2=O)c1O	–	inconclusive: 11.2 µM [inhibitor, partial curve]
Cc1ccc(C2=NN3C(=O)c4ccccc4C3C2)cc1 (configuration not stated)	inactive: -1.51%	–
Cc1ccc(N)cc1-n1c(C)ccc1C	–	inconclusive: 25.1 µM [inhibitor, partial curve]
O=C(NC(=S)Nc1ccc2c(c1)OCCO2)c1ccco1	–	inconclusive: 15.8 µM [inhibitor, single point]
COc1ccc(OC)c(N=c2ssnc2Cl)c1	–	active: 17.7 µM
C[C@H]1CC[C@H]2C(=O)N3[C@H](c4ccccc4Br)[C@@H](C)CC[C@H]3C(=O)N2[C@@H]1c1ccccc1Br	inactive: 1.99%	–
CCN(CC)c1ccc(C=C2C(=O)NC(=S)NC2=O)cc1	–	active: 14.1 µM
COc1ccccc1NC(=O)C(=O)/C=C(\O)c1ccccc1	–	inconclusive: 12.6 µM [inhibitor, partial curve]
COCCNC(=S)NNc1ccc(Cl)c(C(=O)O)c1	–	active: 7.06 µM
CCCCN(C)S(=O)(=O)c1ccc(C(=O)Nc2nnc(CSC)o2)cc1	–	inconclusive: 35.4 µM [inhibitor, single point]
O=C(Nc1ccc2nccnc2c1)Nc1ccccc1Cl	–	inconclusive: 39.8 µM [inhibitor, partial curve]

Structure (SMILES)	activity, negative = inhibition	Potency
COc1ccc(O)c(C(=O)CC(=O)c2ccc(F)cc2)c1	–	inconclusive: 44.6 µM [inhibitor, single point]
Cc1ccc(/C=c2/sc3nnc(-c4ccccc4Cl)n3c2=O)o1	–	inconclusive: 15.8 µM [inhibitor, partial curve]
Cc1cccc(C)c1NC(=O)Cn1c(CN2CCCCC2)nc2ccccc2c1=O	inactive: -0.511%	–
O=C(c1cccc(NC2=NC3CS(=O)(=O)CC3S2)c1)N1CCN(c2ccc(F)cc2)CC1 (configuration not stated)	–	inconclusive: 35.5 µM [inhibitor, single point]
COc1ccc(/C=C2\CCC/C(=C\c3ccc(OC)c(OC)c3OC)C2=O)c(OC)c1OC	inactive: 10.4%	–
COc1cc(NC(=O)c2cc(C)nc3ccccc23)cc(OC)c1OC	inactive: 14.3%	–
O=C(Nc1nnc(SCc2cccc3ccccc23)s1)C1COc2ccccc2O1 (configuration not stated)	–	inconclusive: 19.9 µM [activator, single point]
Cc1cc(C)c2nc(N(CCN(C)C)C(=O)c3ccc(S(=O)(=O)N(C)CC4CCCO4)cc3)sc2c1 (configuration not stated)	–	inconclusive: 22.4 µM [inhibitor, single point]
CN1/C(=C\C(=O)CSc2cccc[n+]2[O-])C(C)(C)c2ccccc21	–	active: 11.2 µM
CC1=C(C)/C(=N\OS(=O)(=O)c2ccccc2)C=CC1=O	–	active: 4.46 µM
CC[n+]1c(/C=C/N(C)c2ccccc2)sc2ccc(Cl)cc21	inactive: -0.0365%	–
COCCOC(=O)c1c(NC(=O)CN2CCc3ccccc32)sc(C(N)=O)c1C	–	inconclusive: 44.6 µM [inhibitor, single point]
CCS(=O)(=O)CCSc1nc2c(cc1C#N)CCCC2	inactive: 8.99%	–
CCn1c(CSc2nccn2C)nc2cc(C(=O)O)ccc21	–	inconclusive: 19.9 µM [inhibitor, partial curve]
N#CC1=C(N)Oc2[nH]c(=S)[nH]c(=O)c2C12C(=O)Nc1ccccc12 (configuration not stated)	–	active: 6.29 µM
Cc1nnc(SC(C)C(=O)Nc2c(C)n(C)n(-c3ccccc3)c2=O)n1N (configuration not stated)	–	inconclusive: 22.3 µM [inhibitor, single point]
C=CCNC(=S)N/N=C1\CCS(=O)(=O)c2ccccc21	–	active: 7.08 µM
O=c1[nH]c(=S)[nH]c2[nH]c(=S)[nH]c12	–	active: 12.6 µM
Cc1cccc(N2C(S)=C(C#N)C(=O)NC23CCCCC3)c1	–	inconclusive: 7.92 µM [inhibitor, partial curve]
CCOC(=O)Cc1csc(NC(=S)NC(=O)c2ccccc2)n1	–	inconclusive: 1.99 µM [inhibitor, full curve]
C/C(=N\Nc1cc(N2CCCCC2)nc(C)n1)c1ccc(Br)cc1	–	inconclusive: 22.4 µM [inhibitor, single point]
COc1ccccc1CNC(c1ccccc1)c1ccccc1	–	inconclusive: 28.2 µM [inhibitor, single point]
CC(=O)N1CC[C@@H]2CC(=O)CC[C@@H]21	inactive: -0.0595% [at 136 µM]	–
O=C(/C=C\c1ccco1)Oc1cccc2cccnc12	–	inconclusive: 19.9 µM [inhibitor, single point]
CCc1ccc(-n2c(C)nc3cc(C(=O)NCc4cccnc4)ccc32)cc1	inactive: 0.515%	–
CCN1CCN(C(=S)c2ccc([N+](=O)[O-])cc2)CC1	–	inconclusive: 44.6 µM [inhibitor, single point]

Structure (SMILES)	activity, negative = inhibition	Potency
CC(=O)N(C)c1nnc(-c2ccccn2)s1	inactive: 1.19%	–
CC(=O)NC(C)Cc1ccccc1 (configuration not stated)	inactive: 0.0046%	–
CC(C)OC(=O)c1cc(NC(=O)c2nn(C)cc2Br)cc(C(=O)OC(C)C)c1	inactive: 3.57%	–
Cc1cc(SCC(=O)Nc2ccc(O)cc2)n2nc(C)c(-c3ccccc3)c2n1	inactive: 0.149%	–
N#Cc1c(=O)c2nc(NCCCO)ncc2n2c(=O)c3ccccc3[nH]c12	–	inconclusive: 17.7 µM [inhibitor, partial curve]
CNc1ccccc(C(=O)/C=C/c2ccccc2OC)c1=O	–	active: 11.2 µM
Nc1ccc2c(c1)C(=O)C(=O)c1ccccc1-2	–	inconclusive: 0.141 µM [inhibitor, full curve]
COc1c(C)cccc1C(=O)Nc1ccc(N2CCN(S(C)(=O)=O)CC2)cc1	inactive: -2.86%	–
CN(C)c1ccc(N=c2sc3ccccc3n2C)cc1	–	inconclusive: 19.9 µM [inhibitor, single point]
CC(C)CCNc1nc(N2CCCC2)c2c(c1C#N)CCN(C)C2	–	inconclusive: 4.47 µM [inhibitor, full curve]
CCCc1nc2ccccc2c(=O)n1/N=C/c1ccc(O)c(O)c1	–	active: 2.51 µM
COc1cccc(OC)c1C(=O)NC(=S)NNC(=O)[C@H]1C[C@@H]1c1ccccc1	–	inconclusive: 15.8 µM [activator, single point]
CC(C)COc1ccc(Cc2c(O)[nH]c(=S)[nH]c2=O)cc1	–	inconclusive: 25.1 µM [inhibitor, partial curve]
COC(=O)c1ccc(-c2ccc(C(c3c(C)[nH][nH]c3=O)c3c(C)[nH][nH]c3=O)o2)cc1	–	active: 4.46 µM
CC(=O)N(C1=C(N)C(=O)c2ccccc2C1=O)c1ccccc1	–	inconclusive: 3.16 µM [inhibitor, full curve]
Cc1ccc(Nc2nc(N)c3ccccc3n2)cc1C	–	inconclusive: 31.6 µM [inhibitor, partial curve]
COc1ccc(-n2c(=S)[nH]c3[nH]ncc3c2=O)cc1	–	active: 17.7 µM
CN(CC1CCOCC1)C(=O)CC1C(=O)NCCN1Cc1cccc(Oc2ccccc2)c1 (configuration not stated)	inactive: -24.2%	–
Nc1c(C(=O)NCC2CCCO2)sc2nc3c(c(-c4ccco4)c12)CC/C3=C\c1ccco1 (configuration not stated)	–	inconclusive: 17.7 µM [inhibitor, partial curve]
Cc1cc(-c2nnc(CCC(=O)N(C)Cc3cccc4ccccc34)o2)no1	inactive: -4.22%	–
Cc1ccc(C(=O)c2cc3c(cc2[N+](=O)[O-])OCCO3)cc1	inactive: 4.9%	–
Cc1ccc(C)c(NC(=O)CCC(=O)NNC(=O)c2cccs2)c1	–	inconclusive: 4.46 µM [inhibitor, single point]
COc1ccc(CC(C)Nc2cccc(SC)c2)cc1 (configuration not stated)	–	inconclusive: 14.1 µM [inhibitor, partial curve]
COc1cc(CN2CCC(Cc3ccccc3)CC2)c([N+](=O)[O-])cc1OC	–	inconclusive: 17.8 µM [inhibitor, partial curve]
O=C(CC[N+](=O)[O-])OCC1OC(O)C(OC(=O)CC[N+](=O)[O-])[C@@H](OC(=O)CC[N+](=O)[O-])C1OC(=O)CC[N+](=O)[O-] (some centres not stated)	–	inconclusive: 17.7 µM [inhibitor, single point]
